This note sets out measurements from PMC5823876.

By UniProt entry, the sequences of proteins in these tests, tags left out. Where a name states a change or a piece, a line headed by the entry shows the natural chain unless it says otherwise. Chains listed by the source or under a name are the forms on record and can include a tag or linker. Residues count along the entry.
UniProt Q5S007: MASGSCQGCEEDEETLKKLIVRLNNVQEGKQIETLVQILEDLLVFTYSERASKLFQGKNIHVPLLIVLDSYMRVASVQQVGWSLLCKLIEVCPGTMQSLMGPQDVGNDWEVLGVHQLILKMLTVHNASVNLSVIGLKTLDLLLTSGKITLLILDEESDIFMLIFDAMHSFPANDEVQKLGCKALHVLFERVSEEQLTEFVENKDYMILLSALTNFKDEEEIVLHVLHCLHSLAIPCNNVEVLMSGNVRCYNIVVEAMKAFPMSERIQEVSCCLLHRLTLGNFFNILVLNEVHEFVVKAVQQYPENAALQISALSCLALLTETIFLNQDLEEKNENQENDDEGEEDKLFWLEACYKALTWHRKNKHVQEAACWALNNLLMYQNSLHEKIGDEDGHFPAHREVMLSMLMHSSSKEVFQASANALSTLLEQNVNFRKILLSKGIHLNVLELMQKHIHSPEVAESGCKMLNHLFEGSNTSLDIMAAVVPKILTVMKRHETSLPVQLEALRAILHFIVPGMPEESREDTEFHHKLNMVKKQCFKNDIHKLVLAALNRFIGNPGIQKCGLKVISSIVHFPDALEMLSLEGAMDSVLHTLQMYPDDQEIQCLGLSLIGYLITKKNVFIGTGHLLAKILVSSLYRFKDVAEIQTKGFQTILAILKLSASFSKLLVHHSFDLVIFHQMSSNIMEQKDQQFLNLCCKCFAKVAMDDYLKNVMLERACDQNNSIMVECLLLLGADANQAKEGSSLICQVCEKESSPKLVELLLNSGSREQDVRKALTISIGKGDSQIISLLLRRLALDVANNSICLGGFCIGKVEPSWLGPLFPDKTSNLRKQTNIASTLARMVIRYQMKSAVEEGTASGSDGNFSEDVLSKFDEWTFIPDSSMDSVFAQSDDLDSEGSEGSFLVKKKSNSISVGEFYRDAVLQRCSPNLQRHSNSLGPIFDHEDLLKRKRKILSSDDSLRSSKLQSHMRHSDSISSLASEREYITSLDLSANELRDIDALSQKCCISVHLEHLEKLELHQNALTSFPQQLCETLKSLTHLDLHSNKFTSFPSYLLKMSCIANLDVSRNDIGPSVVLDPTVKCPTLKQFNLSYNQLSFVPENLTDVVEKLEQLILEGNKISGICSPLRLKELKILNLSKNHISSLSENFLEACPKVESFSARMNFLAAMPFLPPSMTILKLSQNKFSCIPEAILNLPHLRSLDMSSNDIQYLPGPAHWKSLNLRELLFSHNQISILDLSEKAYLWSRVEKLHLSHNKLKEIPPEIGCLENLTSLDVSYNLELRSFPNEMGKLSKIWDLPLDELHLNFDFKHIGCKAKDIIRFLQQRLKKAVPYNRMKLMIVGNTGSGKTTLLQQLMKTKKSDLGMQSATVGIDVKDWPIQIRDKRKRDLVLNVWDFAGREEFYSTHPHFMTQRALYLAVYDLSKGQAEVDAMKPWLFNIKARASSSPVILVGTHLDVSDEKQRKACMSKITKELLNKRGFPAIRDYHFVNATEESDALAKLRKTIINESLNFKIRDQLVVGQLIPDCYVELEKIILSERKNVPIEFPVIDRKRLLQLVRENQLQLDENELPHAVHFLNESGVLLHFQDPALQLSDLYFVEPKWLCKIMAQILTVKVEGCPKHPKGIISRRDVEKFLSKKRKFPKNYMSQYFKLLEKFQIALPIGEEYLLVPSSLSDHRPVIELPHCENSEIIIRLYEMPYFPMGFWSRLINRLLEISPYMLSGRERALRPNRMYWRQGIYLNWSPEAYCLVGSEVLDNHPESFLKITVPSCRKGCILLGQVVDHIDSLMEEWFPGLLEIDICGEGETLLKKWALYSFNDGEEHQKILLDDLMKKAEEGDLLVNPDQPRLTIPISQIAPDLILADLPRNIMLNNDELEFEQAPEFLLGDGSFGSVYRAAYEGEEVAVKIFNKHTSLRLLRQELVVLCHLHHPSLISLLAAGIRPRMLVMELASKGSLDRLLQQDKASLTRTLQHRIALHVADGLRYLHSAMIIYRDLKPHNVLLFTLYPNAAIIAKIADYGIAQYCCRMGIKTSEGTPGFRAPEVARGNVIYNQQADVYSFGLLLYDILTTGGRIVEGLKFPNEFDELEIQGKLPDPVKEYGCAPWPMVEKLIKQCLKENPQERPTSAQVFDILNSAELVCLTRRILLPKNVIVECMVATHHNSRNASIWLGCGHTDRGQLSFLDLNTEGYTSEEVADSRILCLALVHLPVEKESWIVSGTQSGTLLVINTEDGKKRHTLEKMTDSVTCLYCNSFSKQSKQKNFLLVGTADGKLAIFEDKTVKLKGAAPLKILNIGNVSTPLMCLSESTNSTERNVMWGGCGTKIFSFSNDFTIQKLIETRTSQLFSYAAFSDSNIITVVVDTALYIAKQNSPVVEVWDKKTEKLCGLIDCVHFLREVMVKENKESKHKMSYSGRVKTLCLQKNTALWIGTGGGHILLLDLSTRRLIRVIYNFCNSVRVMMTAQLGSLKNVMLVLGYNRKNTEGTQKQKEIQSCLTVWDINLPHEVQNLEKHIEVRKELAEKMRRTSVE
Flag-tagged N-terminal domain of LRRK2 (amino acids 1-969): residues 1-969 of Q5S007
Flag-tagged LRRK2 N-terminal fragment, amino acids 1-575: residues 1-575 of Q5S007
Flag-tagged LRRK2 N-terminal fragment, amino acids 1-550: residues 1-550 of Q5S007
Flag-tagged LRRK2 N-terminal fragment, amino acids 1-500: residues 1-500 of Q5S007
Flag-tagged ROC domain of LRRK2: residues 1328-1511 of Q5S007
Flag-tagged COR domain of LRRK2: residues 1546-1740 of Q5S007
UniProt Q38SD2: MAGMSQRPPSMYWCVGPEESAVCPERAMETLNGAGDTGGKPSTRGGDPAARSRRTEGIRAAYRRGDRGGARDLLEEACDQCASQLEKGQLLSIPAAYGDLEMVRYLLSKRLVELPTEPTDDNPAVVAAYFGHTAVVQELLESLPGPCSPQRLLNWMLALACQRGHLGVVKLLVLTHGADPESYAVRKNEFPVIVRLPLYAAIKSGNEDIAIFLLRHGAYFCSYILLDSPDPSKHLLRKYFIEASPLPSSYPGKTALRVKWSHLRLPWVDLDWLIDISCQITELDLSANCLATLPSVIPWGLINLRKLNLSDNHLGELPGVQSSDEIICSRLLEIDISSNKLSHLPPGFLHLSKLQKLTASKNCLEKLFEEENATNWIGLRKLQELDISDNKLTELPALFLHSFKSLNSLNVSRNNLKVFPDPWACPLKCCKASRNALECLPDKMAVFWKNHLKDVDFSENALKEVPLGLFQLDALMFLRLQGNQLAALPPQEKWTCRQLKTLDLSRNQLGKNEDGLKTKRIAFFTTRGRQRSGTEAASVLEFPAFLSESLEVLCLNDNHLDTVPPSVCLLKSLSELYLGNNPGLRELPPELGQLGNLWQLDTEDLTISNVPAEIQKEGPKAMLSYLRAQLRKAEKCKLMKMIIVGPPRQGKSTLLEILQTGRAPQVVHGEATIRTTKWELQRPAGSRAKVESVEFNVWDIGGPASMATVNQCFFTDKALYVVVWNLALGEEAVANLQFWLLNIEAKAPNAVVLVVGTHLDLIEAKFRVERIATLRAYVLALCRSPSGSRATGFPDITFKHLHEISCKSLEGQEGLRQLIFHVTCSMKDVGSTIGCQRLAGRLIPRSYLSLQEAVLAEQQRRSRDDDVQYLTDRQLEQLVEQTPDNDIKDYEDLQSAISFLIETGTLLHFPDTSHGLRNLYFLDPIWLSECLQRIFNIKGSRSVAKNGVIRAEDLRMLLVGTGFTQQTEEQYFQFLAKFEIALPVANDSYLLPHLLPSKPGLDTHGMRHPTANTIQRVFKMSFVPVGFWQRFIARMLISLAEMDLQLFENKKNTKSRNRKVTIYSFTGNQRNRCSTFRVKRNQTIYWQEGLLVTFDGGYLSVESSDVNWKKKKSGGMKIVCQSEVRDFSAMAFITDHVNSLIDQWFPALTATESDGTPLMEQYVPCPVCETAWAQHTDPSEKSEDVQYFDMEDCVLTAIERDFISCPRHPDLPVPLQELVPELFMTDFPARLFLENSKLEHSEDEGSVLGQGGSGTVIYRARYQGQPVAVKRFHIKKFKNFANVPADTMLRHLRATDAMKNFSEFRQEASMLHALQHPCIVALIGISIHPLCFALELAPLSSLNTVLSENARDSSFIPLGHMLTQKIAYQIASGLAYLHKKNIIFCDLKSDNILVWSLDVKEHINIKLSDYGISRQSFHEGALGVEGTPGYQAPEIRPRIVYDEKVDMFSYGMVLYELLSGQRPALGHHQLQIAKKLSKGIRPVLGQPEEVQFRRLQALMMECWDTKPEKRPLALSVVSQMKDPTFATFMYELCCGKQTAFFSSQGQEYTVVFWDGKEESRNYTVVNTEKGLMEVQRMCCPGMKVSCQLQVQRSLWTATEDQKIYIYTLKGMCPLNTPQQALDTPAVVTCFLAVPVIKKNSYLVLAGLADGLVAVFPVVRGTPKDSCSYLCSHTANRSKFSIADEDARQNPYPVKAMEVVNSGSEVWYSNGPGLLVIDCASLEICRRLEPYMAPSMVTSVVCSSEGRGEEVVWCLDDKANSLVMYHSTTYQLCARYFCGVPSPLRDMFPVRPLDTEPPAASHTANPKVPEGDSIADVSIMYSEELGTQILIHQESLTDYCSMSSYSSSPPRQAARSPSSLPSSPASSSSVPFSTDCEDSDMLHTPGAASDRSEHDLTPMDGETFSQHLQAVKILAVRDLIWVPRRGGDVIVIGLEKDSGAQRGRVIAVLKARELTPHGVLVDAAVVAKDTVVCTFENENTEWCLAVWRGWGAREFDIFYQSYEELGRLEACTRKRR
UniProt Q13158: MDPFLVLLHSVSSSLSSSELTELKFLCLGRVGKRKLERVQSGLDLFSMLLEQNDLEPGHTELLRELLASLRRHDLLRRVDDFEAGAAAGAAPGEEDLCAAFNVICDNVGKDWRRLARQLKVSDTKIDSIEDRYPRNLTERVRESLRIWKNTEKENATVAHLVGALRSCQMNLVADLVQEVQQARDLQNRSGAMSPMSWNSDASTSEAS

Experiment [1] concerns the target Flag-tagged full-length G2019S-LRRK2 (human) (UniProt Q5S007). The experiment is described as follows: co-IP; G2019S-LRRK2 and full length FADD with HA-tagged leucine zipper FADD-DD co-expressed as competitor (Suppl Fig. 9a).
Experiment [2] has as its target Flag-tagged COR domain of LRRK2 (human) (UniProt Q5S007). The experiment in a line: co-IP; V5-FADD co-expressed with Flag-tagged LRRK1, LRRK2 or LRRK2 fragments in HEK293T; lysate (20 mM HEPES pH 7.4, 150 mM NaCl, 0.1% NP-40, 2 mM EGTA, 2 mM MgCl2, 10% glycerol) on anti-Flag resin at 4 °C; eluates probed with anti-V5.
In experiment [3] the target is Flag-tagged LRRK1 (human) (UniProt Q38SD2). The description is as above.
For experiment [4], the target named is Flag-tagged LRRK2 N-terminal fragment, amino acids 1-500 (human) (UniProt Q5S007). Described as above.
The target of experiment [5] is Flag-tagged LRRK2 N-terminal fragment, amino acids 1-550 (human) (UniProt Q5S007). The description is as above.
In experiment [6] the target is Flag-tagged LRRK2 N-terminal fragment, amino acids 1-575 (human) (UniProt Q5S007). Described as above.
Experiment [7] has as its target Flag-tagged N-terminal domain of LRRK2 (amino acids 1-969) (human) (UniProt Q5S007). Described as above.
The target of experiment [8] is Flag-tagged ROC domain of LRRK2 (human) (UniProt Q5S007). Described as above.
Experiment [9] addresses Flag-tagged full-length G2019S-LRRK2 (human) (UniProt Q5S007). Described as above.
Experiment [10] addresses Flag-tagged full-length WT LRRK2 (human) (UniProt Q5S007). Described as above.

Results are given in words; binding and its absence hold for the method and conditions named. Binding seen in cells or lysates may run through a third protein. Some results given as binding are weak or reduced against the parent protein; the word gives no strength.

With “V5-tagged FADD, full-length, WT (from UniProt Q13158 1-208)”, the binding result is “binds” in experiment [1]; “no binding” in experiment [2]; “no binding” in experiment [3]; “no binding” in experiment [4]; “binds” in [5]; “binds” in experiment [6]. Also, the binding entry in [7] is “binds”; in experiment [8] it was “no binding”; in experiment [9], “binds”; in [10], “binds”.

“V5-tagged full-length F25R mutant FADD (from UniProt Q13158 1-208)”: the binding entry in experiment [9] and in [10] was “no binding” each time.
